According to PubChem BioAssay AID1345082 (National Center for Advancing Translational Sciences (NCATS), 2018):
The whole screen tested about 94,000 compounds, of which about 4,000 (4.3%) were called active. Inconclusive results, whose numbers are uncertain, are shown with a selection of clear calls. Calls come from the whole dose curve; as a rule, active = well fitted inhibition curve with a large enough effect; inconclusive = small, poorly fitted or top-dose-only effect; inactive = no such curve, though single readings can be large or run the other way. Potencies beside an inconclusive call are fits to weak or partial responses and may not hold up.

Assay: Cytotoxic Profiling in NIH 3T3 Cell Line of Diverse Libraries Using Quantitative High-Throughput Screening; note: nearly all actives have a fitted effect of over 55% in size
Conditions: NIH 3T3 viability, CellTiter-Glo ATP luminescence, 48-72 h; series mostly up to 96.7 µM
Outline: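 Cells were seeded at 400 per well, treated with pin-transferred compound, and kept 48 or 72 hr at 37 °C before CellTiter-Glo addition and luminescence imaging of cellular ATP.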
Potency is the fitted concentration of half-maximal effect; tags give direction and shape of the fitted curve.

Structure (SMILES)	Potency
O=C(c1ccccn1)N1CCCC(CN2CCCC2)CC1 (centres undefined)	inactive
O=C(NCCCc1ccccc1)C1CCN(Cc2ccccc2-c2cccnc2)CC1	inconclusive: 39.8 µM [inhibitor, partial curve, poor fit]
O=C(C1CC1)N1CC2(CCCN2C2COC2)Cc2ccccc21 (centres undefined)	inactive
CCc1nc2c(c(-c3ccc(Cl)cc3)n1)CN(C(=O)c1ccc(C(F)(F)F)cc1)CC2	inconclusive: 56.2 µM [inhibitor, partial curve, poor fit]
O=C(c1ccc2[nH]ccc2c1)N1CCCN(c2cc(-c3ccc(F)cc3)[nH]n2)CC1	inactive
CNC(=O)C1(N2CCC[C@H]2C(=O)N2CCC(C)CC2)CCCCC1	inactive
COC1CN(c2cccc(F)c2)C12CCN(C(=O)COc1ccccc1)CC2 (centres undefined)	inconclusive: 50.1 µM [inhibitor, single point]
Cn1cc(C(=O)N2CCCC(c3nnnn3C)C2)cn1 (centres undefined)	inactive
O=C(NC1CCCC1)C1CCCN(C2CCN(Cc3ccncc3)CC2)C1 (centres undefined)	inactive
CCc1nnc(NC(=O)Cn2nc3c(cc2=O)CCCCC3)s1	inactive
Cc1ccccc1-c1cc(O)c2c(c1)CN(C(=O)C1CCNCC1)CCO2	inconclusive: 56.2 µM [inhibitor, partial curve, poor fit]
Cn1cnc(C(=O)N2CCC(Cc3ccc(COc4cccc(F)c4)cc3)CC2)c1	inconclusive: 31.6 µM [inhibitor, partial curve]
COc1ccccc1C(=O)N1CCC2(CCCCO2)CC1	inactive
O=C(c1ccc(C(F)(F)F)cc1)N1CCc2nc(C3CC3)nc(-c3ccc(O)cc3)c2C1	inconclusive: 70.8 µM [inhibitor, single point]
CC(C)(C)CC(=O)Nc1ccc([C@H]2OCC(=O)N(Cc3ccc(F)cc3)[C@@H]2CO)cc1	inconclusive: 100 µM [inhibitor, partial curve, poor fit]
COc1ccc(-c2nc(C)nc3c2CCN(C(=O)c2ccccc2F)CC3)cc1	inconclusive: 79.4 µM [inhibitor, partial curve, poor fit]
O=S1(=O)CC(COCc2ccccc2)CN1c1ccccc1 (centres undefined)	inconclusive: 56.2 µM [inhibitor, partial curve, poor fit]
O=C(NC[C@H]1O[C@@H](CC(=O)N2CCc3ccccc32)[C@H](O)[C@@H]1O)Nc1cccc(F)c1	inconclusive: 112 µM [inhibitor, single point]
Cc1ccc(-c2cc(C(=O)NCc3cccc(Cl)c3)c3cnn(C)c3n2)cc1	inactive
O=c1c2nc(-c3ccc(O)c(F)c3)ccc2ncn1-c1ccccc1	inconclusive: 56.2 µM [inhibitor, partial curve, poor fit]
Cc1[nH]ncc1CNC(=O)C1CCCCC(=O)N1Cc1ccccc1 (centres undefined)	inactive
O=C(c1ccc(Cl)cc1)N1CCC(N2Cc3cccn3C2=O)CC1	inconclusive: 44.7 µM [inhibitor, partial curve, poor fit]
COc1cccc(CCC(=O)N2CCC(Cc3nc(-c4ccc(F)cc4)no3)CC2)c1	inconclusive: 31.6 µM [inhibitor, partial curve, poor fit]

Structure (SMILES)	Potency
COCC(=O)NCCNC(=O)c1cccc(-c2ccsc2)c1	inactive
O=C(NC1CCN(c2cc(-c3cccs3)[nH]n2)C1)c1cc(F)ccc1Cl (centres undefined)	inconclusive: 56.2 µM [inhibitor, partial curve, poor fit]
CC(C)N1CCC2(CC1)CN(C(=O)c1cnccn1)Cc1ccccc1O2	inactive
O=C(O)Cn1ccc2cc(OCC3CCN(C(=O)CCC(F)(F)F)CC3)cnc21	active: 89.1 µM
CCN1CCN(C(=O)c2ccc3nnc(-c4ccccc4OC)n3c2)CC1	inactive
CNC(=O)c1cccc(-c2cnc3[nH]cc(CC(=O)N(C)C)c3c2)c1	inconclusive: 63.1 µM [inhibitor, partial curve, poor fit]
Cc1ncc2n1C(=O)N(C1CCN(Cc3ccnn3C)CC1)C2	inactive
CCNc1cc(N2CCC(CCC(=O)N3CCN(c4cccc(OC)c4)CC3)CC2)ncn1	inconclusive: 28.2 µM [inhibitor, partial curve, poor fit]
N#Cc1cccc(C(=O)N2CCC(n3cc(-c4nc(-c5ccccc5)no4)nn3)CC2)c1	inactive
Cc1ccc(-n2c(C3CCN(C(=O)c4ccoc4)CC3)n[nH]c2=O)cc1	inconclusive: 56.2 µM [inhibitor, partial curve, poor fit]
Cc1ccc(-n2ncc3c2CCCC3NS(=O)(=O)N2CCCC2)cc1C (centres undefined)	inconclusive: 50.1 µM [inhibitor, partial curve, poor fit]
Cc1cccc(CN2CCN(Cc3nc(-c4ccco4)oc3C)C(C)C2=O)c1 (centres undefined)	inactive
COc1cc(OC)cc(-c2onc(C)c2C(=O)NCCCOC(C)C)c1	inconclusive: 50.1 µM [inhibitor, partial curve, poor fit]
CCOc1cc(-c2noc(-c3ncn4c3COC(c3ccc(F)cc3)C4)n2)ccc1OC (centres undefined)	active: 25.1 µM
O=C(NCc1cccc(C(F)(F)F)c1)C1CCN(c2ccnc3ccnn23)CC1	inconclusive: 7.94 µM [inhibitor, full curve, poor fit]
CN1CCCCCC(O)c2cc(C(=O)NCCC3=CCCCC3)ccc21 (centres undefined)	inconclusive: 50.1 µM [inhibitor, partial curve, poor fit]
O=C(c1ccccc1F)N1CCN(C(=O)c2nnn3c2COC(c2ccc(Cl)cc2)C3)CC1 (centres undefined)	inconclusive: 50.1 µM [inhibitor, partial curve, poor fit]
CN(C)CCN(C)C(=O)c1ccc(-c2ncc3cnc(-c4ccccc4)cn23)cc1	inconclusive: 89.1 µM [inhibitor, partial curve, poor fit]
COc1ccc(Nc2ccnc(N3CCCC(C(=O)NC4CC4)C3)n2)cc1 (centres undefined)	inconclusive: 50.1 µM [inhibitor, partial curve, poor fit]
COc1ccccc1N1CCN([C@@H]2[C@H](O)[C@H](CO)O[C@@H]2CN)CC1	inactive
CC1CCN(S(=O)(=O)N2CCC(C(=O)N3CCc4nc5cc[nH]n5c(=O)c4C3)CC2)CC1	inconclusive: 50.1 µM [inhibitor, partial curve, poor fit]
O=C(c1ccc(Cl)nc1)N1CCC(C(=O)N2CCCC(c3nc4ncccc4[nH]3)C2)CC1 (centres undefined)	inactive
O=C(CC(c1cccc([N+](=O)[O-])c1)c1c[nH]c2ccccc12)NCCc1ccccc1 (centres undefined)	active: 25.1 µM

Structure (SMILES)	Potency
Cc1ccccc1C(=O)N1CCC2(CC1)CCN(Cc1cccs1)c1ccccc1O2	inconclusive: 31.6 µM [inhibitor, full curve]
Cc1ccccc1C(C(=O)NCc1nc(-c2ncccn2)no1)N(C)C (centres undefined)	inactive
CN1CCC(Cc2ccc(C(=O)NCC3CCCCC3)cc2)CC1	active: 39.8 µM
Clc1cc(NCc2cccs2)n2nccc2n1	inconclusive: 17.8 µM [inhibitor, full curve, poor fit]
COc1ccc(OC)c(NC(=O)c2c(C)oc3ccn(Cc4cccc(F)c4)c(=O)c23)c1	inactive
O=C(NC1CCCC1)c1cc(-c2cccc(C(F)(F)F)c2)c2nncn2n1	inactive
CCOCCn1c(=O)n(CCn2cc(Cl)cn2)c2cc(C(=O)O)cnc21	inactive
CC(C)n1cnnc1-c1nn(C)c2c1CN(C(=O)CCc1ccccc1)CC2	inactive
CO[C@H]1C(=O)N(C(C)C)[C@H]1C1CCN(C(=O)C2CC2)CC1	inactive
CNC(=O)N1CCC(OC2CCN(Cc3ccccc3)CC2)CC1	inactive
O[C@H]1[C@H](NCc2ccc(OC(F)(F)F)cc2)[C@H]2CO[C@H](O2)[C@@H]1N1CCN(c2ccccc2)CC1	inactive
O=C(NC1CCCC1)NC1CCN(C(=O)c2ccc(-c3cccs3)cc2)CC1	inconclusive: 31.6 µM [inhibitor, partial curve]
Cc1cn2nc(C(=O)N3CCC(NC(=O)c4ccc5ccccc5n4)CC3)cc2c(=O)[nH]1	inconclusive: 50.1 µM [inhibitor, partial curve, poor fit]
Fc1cccc(-n2cc(CN3CCCC4(CCOC4)C3)cn2)c1 (centres undefined)	inactive
CC(C)NC(=O)c1ccnc(-c2nnc3ccc(Nc4ccccc4)nn23)c1	inconclusive: 89.1 µM [inhibitor, partial curve]
O=C(c1cccc(Br)c1)N1CCN(c2cc(-c3ccc(F)cc3)[nH]n2)CC1	inconclusive: 35.5 µM [inhibitor, partial curve]
COc1ccc(CN2CCC3(CNc4ccccc4[S+](=O)([O-])N3)C2)cc1 (centres undefined)	inconclusive: 44.7 µM [inhibitor, partial curve, poor fit]
O=C(Nc1ncc(-c2cccc(F)c2)c2c1OCC2)c1ccc(Cl)cc1	inconclusive: 63.1 µM [inhibitor, partial curve, poor fit]
O=C(NCCc1ccccc1)NC1CCN(C(=O)N2CC3CC(C2)[C@H]2CCCC(=O)N2C3)CC1 (some centres undefined)	inactive
Cc1nn(-c2ccccc2)c(C)c1[C@@H]1C=C[C@@H](NCc2ccc(F)cc2)C1	inconclusive: 63.1 µM [inhibitor, partial curve, poor fit]
O=C(C1CCCN1[S+](=O)([O-])c1cccc(C(F)(F)F)c1)N1CCC(c2nc3ccncc3[nH]2)C1 (centres undefined)	inactive
N#Cc1cccc(CN2CCOC[C@H]2c2ncc(-c3ccc(Cl)cc3)[nH]2)c1	active: 100 µM
COc1ccc(-c2cc(CC3(NC4CCN(C(C)=O)CC4)COC3)no2)cc1	inactive
